The list shows a part of the results. At the low end of the ranking, values are background and their order means little.

This assay concerns the target T1, GST-Rok (full length) (UniProt O34857).
T1 sequence: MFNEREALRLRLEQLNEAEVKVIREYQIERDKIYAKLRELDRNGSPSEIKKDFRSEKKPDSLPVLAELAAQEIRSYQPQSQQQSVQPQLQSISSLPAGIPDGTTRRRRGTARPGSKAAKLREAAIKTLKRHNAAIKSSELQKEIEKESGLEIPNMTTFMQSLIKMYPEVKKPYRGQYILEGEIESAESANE
Kind of assay: protein binding microarray.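 Note: rank score from −0.5 (least bound) to 0.5 (best bound).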 The settings on record: Rok is a gene silencer of Bacillus subtilis; high values mean tight binding; most listed sequences are background and not binding sites; double strand, one strand shown.
As for CCCACGAG, the binding signal is -0.11 E-score. As for AGAACGCT, the binding signal was found to be 0.188 E-score. As for GTCATCAA, the binding signal was -0.111 E-score. In the case of CACACGGG, the binding signal is -0.249 E-score. In turn, GCGGCCAC displayed a binding signal of -0.296 E-score. For the sequence CAGCAGAG, the binding signal is -0.304 E-score.

CCTTGTAG had a binding signal of -0.124 E-score.

Consider CGTATGTC, for which the binding signal is -0.0443 E-score. In turn, ACCTCAAG gave a binding signal of 0.0188 E-score. In turn, AGCCTAGA returned a binding signal of -0.106 E-score. Sequence ACTGGCAA came in with a binding signal of -0.106 E-score. The sequence GGCTACAA came in with a binding signal of 0.0236 E-score.

In turn, ATAGCAAT registered a binding signal of 0.298 E-score. Sequence GCGCACAC returned a binding signal of -0.224 E-score.

CCTATAAC returned a binding signal of 0.226 E-score. Take CACAGAAC: the binding signal is -0.0713 E-score. Take GGCGCCGA: the binding signal is -0.153 E-score. On to ATCCACGC, for which the binding signal was -0.0952 E-score. CAGTCCAA returned a binding signal of -0.0763 E-score. In the case of GAGGAAGA, the binding signal is -0.299 E-score. GGTATCTA registered a binding signal of 0.334 E-score. For the sequence ATGATCGG, the binding signal was -0.0463 E-score. For ACCAGCTG, the binding signal was found to be 0.0468 E-score. AAGTGGAA displayed a binding signal of -0.0172 E-score.

TAAGCTGA gave a binding signal of -0.0981 E-score. The figure for CGACATGA is 0.14 E-score; for AGCTGATA it is 0.122 E-score.

Regarding GGTAAGGA, the binding signal is -0.0918 E-score. The figure for CGATACCG is 0.0685 E-score.

CACAGCTC gave a binding signal of -0.139 E-score. GCGGACTA gave a binding signal of -0.0642 E-score. For the sequence AATGCGCC, the binding signal was -0.0617 E-score. Sequence TGACTCCA gave a binding signal of -0.158 E-score. CTCCGGAA: the binding signal was -0.0523 E-score.

CTGCAGGC had a binding signal of -0.206 E-score.

The sequence GATCTTCA displayed a binding signal of -0.0726 E-score.

On to CAAGGAGC, for which the binding signal is -0.347 E-score.

With TAGTATGA, the binding signal worked out at 0.141 E-score.

CTCACAGC registered a binding signal of -0.195 E-score. As for CCGAAGGA, the figure is -0.263 E-score; as for ACTTTAAT, 0.195 E-score. In turn, CCCGGGTA showed a binding signal of -0.221 E-score. The figure for GAAGGGGA is -0.309 E-score; for ACGTGTTA it is -0.0308 E-score; for CATTCAAA it is 0.00724 E-score. AAGGTTTG: the binding signal is -0.0626 E-score.

TACAACTA: the binding signal was found to be 0.368 E-score. On to ATATGAAT, for which the binding signal worked out at 0.106 E-score. Turning to CGTACGAA, the binding signal worked out at 0.0484 E-score. CACAAGAC: the binding signal was -0.175 E-score. Consider TGATCCAA, for which the binding signal is -0.104 E-score. As for GAAGCATC, the figure is -0.0913 E-score; as for ATATTAAT, 0.345 E-score; as for AAGTCTCC, -0.219 E-score. AACATCGA yielded a binding signal of 0.129 E-score. As for GTTACAGA, the figure is 0.216 E-score. ACACAAAC had a binding signal of 0.111 E-score. As for CTCTTCAA, the figure is 0.0324 E-score; as for CATGCTAA, 0.132 E-score; as for AAGCTTGT, 0.0413 E-score. The figure for AGGGATAA is 0.0427 E-score.

For ACGAATCG, the binding signal is -0.0917 E-score.

The sequence AAAATGTA registered a binding signal of 0.287 E-score.

In turn, AATCGCTA registered a binding signal of 0.139 E-score.

Consider CAGTGTGC, for which the binding signal is -0.0719 E-score.

On to CGGCTCTA, for which the binding signal was -0.155 E-score. For the sequence ACTGACAT, the binding signal is 0.0422 E-score.

With AGACTCCT, the binding signal is -0.104 E-score.

AATTCATG displayed a binding signal of 0.197 E-score. Turning to CCACACCG, the binding signal is -0.0167 E-score.

ACTCGGCA yielded a binding signal of -0.0775 E-score. Turning to GCCGGCAC, the binding signal is -0.335 E-score.

In turn, AATTTGGG registered a binding signal of -0.192 E-score. As for GGGACCGA, the figure is -0.345 E-score; as for CCCGGACC, -0.283 E-score; as for GGGAAAAC, 0.131 E-score. Regarding ACTACACT, the binding signal stood at 0.242 E-score. CAACCCTA yielded a binding signal of -0.129 E-score. In turn, GCGGCCTA returned a binding signal of -0.233 E-score.

With GCGCTTGA, the binding signal was -0.165 E-score.

Sequence GACCCAGC returned a binding signal of -0.253 E-score.

For ATAGCGTA, the binding signal turned out to be 0.222 E-score. ACCCCATG came in with a binding signal of -0.268 E-score. Consider CATATGAC, for which the binding signal turned out to be 0.0572 E-score. CCACTGTA displayed a binding signal of 0.158 E-score. The sequence CCAACCAC came in with a binding signal of -0.206 E-score. With AACTCGCG, the binding signal was -0.133 E-score. In turn, AATGGGCT registered a binding signal of -0.169 E-score. GCTATGAC came in with a binding signal of 0.0534 E-score. CAATCACA had a binding signal of 0.125 E-score. With TGTGGCAA, the binding signal was -0.0171 E-score. ACCCTGGC showed a binding signal of -0.153 E-score.

In the case of GACACAGA, the binding signal is -0.168 E-score. Sequence ACCATGGG displayed a binding signal of -0.289 E-score. As for CCGCTCGA, the binding signal was -0.203 E-score. On to ATTCGGCC, for which the binding signal is -0.176 E-score. With GAGAGTCC, the binding signal was -0.151 E-score. As to CCCCTGAC, the binding signal was -0.423 E-score.

CACTGGCG: the binding signal was -0.113 E-score. Consider AGAGCAAG, for which the binding signal was -0.229 E-score. The figure for CCTAGGGA is -0.209 E-score; for CAAGAAAG it is -0.0888 E-score. In turn, AAGTGCTA returned a binding signal of 0.0947 E-score. On to TGGGTAAA, for which the binding signal came out at 0.248 E-score.

The sequence CGTTTGTA returned a binding signal of 0.138 E-score. As for GTGAACGA, the binding signal was -0.173 E-score. AGAGCAAC: the binding signal was -0.205 E-score. For GCTTACCA, the binding signal was -0.105 E-score.

Consider AGCCAGAT, for which the binding signal was -0.0289 E-score.

AGGACACA came in with a binding signal of -0.163 E-score. AGGCCGTC came in with a binding signal of -0.0199 E-score.

For the sequence ACATACTC, the binding signal was 0.162 E-score. As for ACGAGACC, the figure is -0.154 E-score; as for CTGTTGAA, -0.0398 E-score; as for CTCTACAA, 0.0924 E-score. Sequence AATCATCT yielded a binding signal of 0.00102 E-score.

ACCTTTCA returned a binding signal of -0.0427 E-score.

Turning to ATGCAGGG, the binding signal was -0.148 E-score. CAGTTGTC yielded a binding signal of -0.0905 E-score. The sequence ATTGCCCC came in with a binding signal of -0.152 E-score. GCCGTTCC showed a binding signal of -0.334 E-score. As for AGGTGACT, the figure is -0.218 E-score. As for ATTGACGC, the binding signal came out at 0.0974 E-score.

With CACAGGGG, the binding signal was -0.304 E-score.

Consider CCCAACTA, for which the binding signal amounted to 0.138 E-score. As for AGAGAGTG, the binding signal was -0.0763 E-score. GGATCGCC: the binding signal was -0.182 E-score.

With AATGGACG, the binding signal is -0.0902 E-score. The figure for CTAGGTGA is -0.041 E-score.

Turning to CCCGTAAG, the binding signal is -0.153 E-score.

In turn, AAGCGGAA displayed a binding signal of -0.0368 E-score. For TACTAATA, the binding signal turned out to be 0.346 E-score. Take ACTGTGTC: the binding signal turned out to be 0.0666 E-score. Sequence CACCCTGA registered a binding signal of -0.0454 E-score. With CTCTGGGC, the binding signal is -0.0543 E-score. Sequence ATAATTTG returned a binding signal of 0.284 E-score. In turn, GGTGAGAA returned a binding signal of -0.0641 E-score. The sequence CTCCTCCA came in with a binding signal of -0.196 E-score.

Sequence ACCCTAAA gave a binding signal of 0.024 E-score.

ACCCATGA: the binding signal came out at 0.159 E-score. For CATTATGG, the binding signal is 0.107 E-score. Consider ACGCGCGC, for which the binding signal was found to be 0.178 E-score.

AGATAGAC gave a binding signal of 0.108 E-score. In the case of GTTATCGA, the binding signal was 0.0792 E-score. AGCTCAGG returned a binding signal of -0.222 E-score.

ATATCCTA yielded a binding signal of 0.36 E-score. AGACGTCG displayed a binding signal of 0.0554 E-score. Consider AATAGGGA, for which the binding signal worked out at 0.043 E-score.

Take CGCATCCC: the binding signal is -0.41 E-score. Regarding AGTCGTAG, the binding signal is -0.104 E-score. The figure for ATGGCACA is -0.0786 E-score; for CTCCTTGC it is -0.34 E-score; for CATCCACG it is -0.00909 E-score. In turn, GTCCCGAC came in with a binding signal of -0.0855 E-score. In turn, ATAACCTC registered a binding signal of -0.0924 E-score. For the sequence CTTCTAAC, the binding signal was 0.0998 E-score. The figure for ATGCTCAG is -0.224 E-score. ACCATTTG displayed a binding signal of 0.03 E-score.

The sequence GTTTTAAA showed a binding signal of 0.149 E-score. AGGTATGC registered a binding signal of 0.154 E-score.

With CCCGGTTA, the binding signal is -0.0985 E-score. For GCAGATTA, the binding signal stood at 0.109 E-score. ATAGCTGG yielded a binding signal of 0.125 E-score.

On to ATATGTAA, for which the binding signal was found to be 0.286 E-score. On to TCACCGCA, for which the binding signal is -0.152 E-score.

Take AGATAGTG: the binding signal came out at 0.199 E-score.

GTACATCA: the binding signal was found to be 0.176 E-score.

TATTTCAA registered a binding signal of 0.201 E-score. As for GTGATGCA, the binding signal was -0.0315 E-score. As for CTCTGGCA, the figure is -0.213 E-score. As for ATCGACAT, the figure is -0.0715 E-score; as for CCGTTTGC, -0.0322 E-score.
